53 compounds from ChEMBL document CHEMBL4888484, “Replenishing the malaria drug discovery pipeline: Screening and hit evaluation of the MMV Hit Generation Library 1 (HGL1) against asexual blood stage Plasmodium falciparum ,using a nano luciferase reporter read-out” (2022) can be followed below.

Among all 150,000 compounds or so, about 540 (0.36%) showed an effect of 50% or more. Some of the results follow.

The term % Inhibition denotes the change of the read-out against control, counted positive when it falls.

In this test the test system is Plasmodium falciparum. Briefly: Primary screen in NF54 nanoGlo assay, in single point, at 2uM, 72h; a lower Z score goes with more inhibition. The test is classed as functional, Erythrocyte. The note with it: timepoint 72 hour.
In the case of `COC1CCC(NC(=O)c2cnn3c2N[C@@H](C)C[C@H]3C(F)F)CC1` (stereo partly specified), the “% Inhibition” value is given as -3% and the Z score came out at 0.3.

In the case of `O=C1NCCN(C(=O)c2ccc(-c3ccc(O)cc3F)cc2)[C@H]1CCO`, the “% Inhibition” value is -16% and the Z score is listed as 1.5.

In the case of `COc1nc(N(C)C)nc(N2CC(=O)N(c3ccc(Cl)cc3)C2=N)n1`, the “% Inhibition” value stood at 3% and the Z score is listed as -0.33.

`CC(C)Cn1c(=O)c(-c2ccc(C(=O)Nc3ccc4c(c3)OCCO4)cc2)nc2ccccc21`: the “% Inhibition” value is -23% and the Z score was found to be 2.27.

Regarding `OCCn1ccnc1-c1cccc(-c2ccco2)c1`, the “% Inhibition” value was 1% and the Z score is reported as -0.12.

Turning to `CCOC1CC(NC(C)C2CN(C)CCO2)C1(C)C` (stereo unspecified), the “% Inhibition” value is reported as -9% and the Z score was 1.22.

As for `CN(Cc1nnnn1-c1ccccc1)C1CCCCC1`, the “% Inhibition” value is given as -14% and the Z score is 1.46.

As for `C=CCN(C(=O)c1ccc(OCC(F)(F)F)nc1)C1CC1`, the “% Inhibition” value was -18% and the Z score is 2.38.

Take `O=C(Nc1cc(F)c(F)c(F)c1)N1CCC2(CCO2)CC1`: the “% Inhibition” value was 5% and the Z score is recorded as -0.87.

On to `O=C(Nc1cc(C(=O)NCCn2ccnc2)c2c(c1)ncn2C1CCCC1)c1ccccc1`, for which the “% Inhibition” value was -9% and the Z score was 1.53.

For the compound `Cc1noc(Cl)c1CCC(=O)N(C)c1cnn(C)c1`, the “% Inhibition” value is recorded as -11% and the Z score was 1.83.

Take `CCN=C(NCc1c(C)noc1C)N(C)Cc1cn(C)nc1C(C)C`: the “% Inhibition” value amounted to 0% and the Z score is listed as -0.02.

On to `COc1ccccc1-n1c(=O)[nH]c2nc(NCc3cccnc3)ncc2c1=O`, for which the “% Inhibition” value is 1% and the Z score is -0.13.

For `CN(C)c1nc(N2CCN(c3ccccc3F)CC2)nc2c1CN(S(=O)(=O)c1ccccc1)CC2`, the “% Inhibition” value is reported as -1% and the Z score amounted to 0.1.

`CC(=O)N1N=C(c2cc(-c3ccccc3)nc3ccccc23)O[C@H]1c1ccc(C(F)(F)F)cc1`: the “% Inhibition” value is listed as 13% and the Z score is -1.63.

For `COc1cccc([C@@H]2CCCCN2Cc2ccc(N(C)C)nc2)c1`, the “% Inhibition” value is -8% and the Z score was 0.91.

As to `COC1=NCCN(C(=O)OC(C)(C)C)C(C)(C)C1`, the “% Inhibition” value is recorded as -8% and the Z score is 0.75.

Take `O=C(NCCCN1CCOC1=O)c1ccon1`: the “% Inhibition” value is reported as 1% and the Z score was -0.2.

For `CC(=O)N1C[C@H]2CC[C@@H](C1)N(C(=O)c1cc(C)nc3c(Cl)cccc13)C2`, the “% Inhibition” value was -1% and the Z score was 0.19.

On to `COCCN1CCN(Cc2nc(C)c3ccccc3n2)CC1`, for which the “% Inhibition” value is recorded as -1% and the Z score is given as 0.21.

On to `CC(C)(C)c1ccc(S(=O)(=O)N2CCC(C(=O)O[C@H]3CCOC3=O)CC2)cc1`, for which the “% Inhibition” value was found to be 2% and the Z score is given as -0.34.

Turning to `CC(C)c1nnsc1C(=O)N1C[C@@H](CN2CCN(C)CC2)[C@@H](CO)C1`, the “% Inhibition” value was determined as 2% and the Z score is given as -0.19.

Consider `CCn1cc(CN(Cc2ccoc2)CC(C)C)cn1`, for which the “% Inhibition” value is recorded as 9% and the Z score was -1.68.

Take `CCc1c(C)nc(C)nc1-c1ccc(C(=O)N2CCC(C#N)CC2)cc1`: the “% Inhibition” value is -1% and the Z score came out at 0.18.

With `C[C@@H]1N[C@@]2(C(=O)Nc3ccccc32)[C@@H]2C(=O)N(c3cccc(Cl)c3)C(=O)[C@H]12`, the “% Inhibition” value is reported as -6% and the Z score is given as 0.83.

Turning to `Cc1ncsc1CCC(=O)N1CC[C@@](O)(c2ccccc2)[C@H]2CCCC[C@H]21`, the “% Inhibition” value was found to be 4% and the Z score is listed as -0.94.

Regarding `CC(C)c1c[nH]nc1NC(=O)[C@H](C)c1ccsc1`, the “% Inhibition” value is listed as -7% and the Z score turned out to be 1.28.

On to `CC(Nc1ccc(C#N)cn1)C(C)n1cccn1` (stereo unspecified), for which the “% Inhibition” value is -9% and the Z score is 1.68.

With `COc1ccc(C(=O)N2CCN(Cc3c(-c4ccc(F)cc4)nc4ccc(-c5cccc(C)c5)cn34)CC2)cc1`, the “% Inhibition” value was -18% and the Z score was 2.05.

On to `CCc1c(C)nn(C)c1NC(=O)c1cc(C)nn1CC`, for which the “% Inhibition” value is recorded as -10% and the Z score was determined as 1.15.

Regarding `COc1cccc(NC(=O)c2[nH]c3cc(C)sc3c2CN2CCCC2)c1`, the “% Inhibition” value is listed as -13% and the Z score is given as 1.27.

On to `CC1(C)C2CN(C(=O)NC3CCN(c4ccc(C#N)cc4)CC3)CC21` (stereo unspecified), for which the “% Inhibition” value was -17% and the Z score turned out to be 2.57.

As to `Cc1noc(C)c1CN(C(C)C)C1CC1`, the “% Inhibition” value was -14% and the Z score came to 2.23.

`O=C(Nc1ccc(Oc2ccc(Br)c3ccccc23)c(Cl)c1)c1cc(Cl)ccc1O`: the “% Inhibition” value is -3% and the Z score is 0.42.

Consider `O=C1C[C@H](c2cccnc2N2CCOCC2)c2c(-c3ccccn3)n[nH]c2N1`, for which the “% Inhibition” value is recorded as -1% and the Z score is given as 0.27.

In the case of `CNC(=O)c1noc(CN2CCC3(CCC(=O)N(CCOC)C3)CC2)n1`, the “% Inhibition” value is listed as -11% and the Z score is listed as 1.81.

As for `Cc1ccc(-c2ccc(C(N)=O)s2)c(-n2cccn2)c1`, the “% Inhibition” value is -13% and the Z score is listed as 2.44.

With `COc1ccc(C[C@@]2(CCC(=O)N(C)CCc3cn[nH]c3)CCC(=O)N2)c(F)c1`, the “% Inhibition” value is recorded as 11% and the Z score is -1.46.

For `CCC(=O)N1CC2(C)CN(C(=O)CC)CC(c3ccccc3)(C1)C2=O`, the “% Inhibition” value is -12% and the Z score was found to be 1.09.

`CCN1C(=O)CC(C(=O)O)C1c1cccc(C)c1` (stereo unspecified): the “% Inhibition” value is 5% and the Z score is on record as -0.45.

In the case of `Cc1cc(C(=O)NCCCn2cccn2)on1`, the “% Inhibition” value is -4% and the Z score is 0.75.

Consider `C[C@H](OCC1CC1)C(=O)NCCNC(=O)Cc1ccccc1`, for which the “% Inhibition” value stood at 10% and the Z score is on record as -1.51.

For `C=CCc1cc(CN(C)Cc2nncn2C(C)C)ccc1OCC`, the “% Inhibition” value was 3% and the Z score is listed as -0.44.

Turning to `COCCN(Cc1cc2ccc(OC)cc2nc1N(C)C)C(=O)c1ccccc1C(F)(F)F`, the “% Inhibition” value is 2% and the Z score was -0.3.

Regarding `CC(C)=CCC[C@@]1(C)CCC(=O)N(CCn2c(C)cc(C)nc2=O)C1`, the “% Inhibition” value is on record as -24% and the Z score was 2.42.

Consider `O=C(Nc1nc(-c2ccc(Cl)cc2)cc(-c2ccc(Cl)cc2)n1)c1cccs1`, for which the “% Inhibition” value is -10% and the Z score turned out to be 1.94.

For `Nc1nc(NC2(c3ccccc3Cl)CC2)cc([C@H]2CCOC2)n1`, the “% Inhibition” value is 6% and the Z score is given as -0.74.

As to `COC(=O)CN1CCC(NC(=O)[C@@]23CC[C@@](C)(OC2=O)C3(C)C)CC1`, the “% Inhibition” value came to 5% and the Z score was -0.69.

`Cc1cccc(NC(=O)N[C@H]2CCOC(C)(C)C2)n1`: the “% Inhibition” value is listed as 3% and the Z score is reported as -0.3.

Regarding `CCCc1noc(COc2cccnc2C#N)n1`, the “% Inhibition” value is -8% and the Z score was 1.42.

Turning to `Cn1cc(-c2cc(F)ccc2NC(=O)N2CCC(n3ccnn3)CC2)cn1`, the “% Inhibition” value is -13% and the Z score is given as 2.49.

Regarding `CN(C[C@H](O)C(F)(F)F)S(=O)(=O)C1CC1`, the “% Inhibition” value was determined as 1% and the Z score was -0.1.

As to `Cc1ccc([C@@H](NCC(=O)Nc2ccc3c(c2)OCO3)c2ccccc2)cc1C`, the “% Inhibition” value was -8% and the Z score is 1.12.
